Test results taken from paper PMC7062751 (Nature Communications, 2020).

Biological target: T1, GFP-tagged TEX264, wild type (UniProt Q9Y6I9 1-313)
T1 construct: TEX264, wild type; also called GFP-tagged WT TEX264; source: ΔTEX264 HEK293, transiently transfected, captured on GFP trap beads and washed
T1 sequence (looked up): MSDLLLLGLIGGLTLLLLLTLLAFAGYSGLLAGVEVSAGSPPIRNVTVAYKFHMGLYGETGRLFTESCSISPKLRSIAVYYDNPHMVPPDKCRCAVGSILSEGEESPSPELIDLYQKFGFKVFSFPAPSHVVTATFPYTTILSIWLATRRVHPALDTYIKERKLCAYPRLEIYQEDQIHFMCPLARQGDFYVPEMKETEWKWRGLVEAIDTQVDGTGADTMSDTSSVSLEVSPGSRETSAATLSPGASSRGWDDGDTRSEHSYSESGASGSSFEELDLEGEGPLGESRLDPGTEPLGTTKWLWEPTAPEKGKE
Assay: pull-down; GFP- or FLAG-tagged TEX264 variants captured from ΔTEX264 HEK293 lysate (500 mM NaCl, 3% Triton X-100) on GFP trap or anti-FLAG beads, washed, incubated with 1 μg free SUMO1 or SUMO2 for 90 min at 4 °C
Settings: both partners purified

B1: free SUMO1 (natural protein)
chain: not shown
notes: SUMO1, free (not conjugated); source: bought: Boston Biochem
- binding result: binds
